Read counts are not given, so values of variants with three or more changes are uncertain.
B1: CPEB3 Ribozyme (parent)
chain: UAACAGGGGGCCACAGCAGAAGCGUUCACGUCGCAGCCCCUGUCAGAUUCUGGUGAAUCUGCGAAUUCUGCUGUAUAUCUC

Variants of: B1
Test: self-cleavage, relative activity (ratio to wild type); higher = more cleavage; in vitro, sequencing
Summary of the method: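 Libraries of CPEB3 self-cleaving ribozyme mutants came from rounds of error-prone PCR and carried barcodes, which DNA sequencing matched to variants. In vitro transcription used T7 RNA polymerase at 37°C for 5 hours, with a further 15 min in DNase I before EDTA stopped the reaction; the ribozymes cleaved during both steps. The RNA was reverse transcribed with template switching and sequenced on Illumina. Relative activity is the cleaved/total read fraction of a variant divided by that of the unmutated ribozyme, averaged over three batches with at least 5 reads.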

Variant	self-cleavage
G8A A45U A56U U72C	0.15
G8A A45U A57G U74C	0.07
G8A A45U A77U	0.16
G8A A45U G63A A64U	0.06
G8A A47G U49A	0.24
G8A A47G U49C	0.16
G8A A47U U48C A65G U72C U80C	0.14
G8A A56G U74A	0.09
G8A A56U U58C A65G	0.07
G8A A57G A64U U72G	0.06
G8A A57G U66C	0.34
G8A A57G U72C	0.09
G8A A64U U72A	0.1
G8A A65G U72A	0.34
G8A A65G U72C	0.06
G8A C11A A13U A18G	0.1
G8A C11A A15G	0.04
G8A C11A A15G A18U A20U A45G	0.08
G8A C11A A20U U72A	0.05
G8A C11A C23A A45U U54A	0.05
G8A C11G A13G A28U C29U U41A U80A	0.37
G8A C11U A15C A45G U80C	0.05
G8A C11U A56U A57G U67C	0.07
G8A C12A U26C U31C	0.06

Variant	self-cleavage
G8A C12U U41A A57G C62G U74C	0.02
G8A C12U U43C U76A	0.05
G8A C14A U41A U58A U80A	0.14
G8A C14G A21U U74A	0.05
G8A C14U G19C C40U U43G A57G U72A	0.04
G8A C17A A35G	0.07
G8A C17U A28G C38U G70A U76C	0.03
G8A C17U A56G	0.09
G8A C23A A57G U72C	0.11
G8A C23A U41C A64G	0.07
G8A C23G A28G U41A U51A A56G U72G	0.11
G8A C23G U25G A28U A35G U41A	0.05
G8A C23G U72A U78A	0.04
G8A C27U A47G	0.08
G8A C29U G33A A35U A57G	0.03
G8A C29U U41A A77U	0.05
G8A C29U U41C U69C U74C	0.04
G8A C32U U66C U76C A77G	0.19
G8A C40U U72C	0.25
G8A G9A A56G C59A A64G G73C U76G	0.03
G8A G9U A20G U54A	0.09
G8A G9U U41A A45U U54C	0.12
G8A G10A U25C A64G	0.17
G8A G16A A64G U76A	0.22

Variant	self-cleavage
G8A G19A A35U C37U U51A	0.18
G8A G19A U25C A64G C81U	0.23
G8A G19C C32U U49C U66G	0.03
G8A G19U U25C A45G U66C C79A	0.04
G8A G22U U78C	0.18
G8A G24A G30A U51A	0.16
G8A G24A G52A	0.2
G8A G24C C37U U48C U67C C79U	0.04
G8A G30A U54A G70C	0.06
G8A G33A G52U A56G U74C U80C	0.07
G8A G36A A47G U72A	0.05
G8A G42A U54A U60C	0.06
G8A G42U U72A	0.06
G8A G53C A57G G63U	0.06
G8A U25A A28G	0.05
G8A U25A U69C	0.31
G8A U25C A28U U31C A56U A65G	0.08
G8A U25C A35G C50U U80C	0.07
G8A U25C A35U A64G	0.28
G8A U25C A35U U72C U80C	0.04
G8A U25C C32A U43C C68U U78C	0.04
G8A U25C C34U U49C U67C U74C	0.05
G8A U25C G33A A45U A56G U58A	0.04
G8A U25C U26C C71G U74C	0.14

Variant	self-cleavage
G8A U25C U26G A56U U66C	0.04
G8A U25C U60A	0.15
G8A U25C U78A	0.51
G8A U25G U31C A64G	0.06
G8A U26A A64G	0.12
G8A U26A U31C A45G	0.14
G8A U26A U31C U69C	0.06
G8A U26A U49C A64U U66C	0.03
G8A U26A U58C U72C	0.31
G8A U26C U31C A57C U69C	0.07
G8A U26C U60A G73U U76C	0.05
G8A U26C U74A	0.42
G8A U26G A28C G30A U51C U72C	0.07
G8A U31A A64U U66C U69A	0.06
G8A U31A U54C A56G C62U U69C U72C	0.03
G8A U31C A35U	0.18
G8A U31C A75U	0.07
G8A U31C U41C A47G C50A U58C A77G	0.06
G8A U31C U48A A65G	0.05
G8A U31C U60C U78C	0.05
G8A U31C U69A	0.06
G8A U31C U74C U80C	0.1
G8A U41A U60C U78C	0.03
G8A U41A U80C	0.35

Variant	self-cleavage
G8A U41C U43C A57G A64G U69A A77G	0.07
G8A U41C U60C G63A U72C U76C	0.05
G8A U41C U66A U67C U78C	0.06
G8A U41C U69A	0.21
G8A U41G A56U A57G	0.17
G8A U43A A56G	0.09
G8A U43C A45G U49A	0.05
G8A U43C U49C	0.09
G8A U43C U51C	0.08
G8A U48C A57G	0.09
G8A U48C U80A	0.43
G8A U49A U60C U66G	0.07
G8A U51C A56G	0.19
G8A U51C G52A U74C	0.28
G8A U54C A57G	0.18
G8A U54C A57G U78C	0.17
G8A U58G A64G C79G	0.11
G8A U60A A64G	0.07
G8A U66G A77U	0.07
G8A U67C U80A	0.05
G8A U69C A75U	0.15
G8C A13C U51C A65U	0.04
G8C A13G C32U U54C	0.06
G8C A13U U25C U26A U41C A45C A57C	0.04

Variant	self-cleavage
G8C A15G G24A U43C	0.03
G8C A15G U41A U51C G73A	0.09
G8C A18G A35G A56G	0.21
G8C A18G A47G A57C	0.06
G8C A18G C32U A45G U48C U60A	0.06
G8C A18G U25C	0.27
G8C A18U A28G U31A U60C	0.31
G8C A18U U26A A47G	0.05
G8C A18U U41A C62U C68U	0.04
G8C A20C G36A U67C	0.06
G8C A20G A28G C32U	0.06
G8C A21G A35U A47C U48C U67C C71A	0.27
G8C A28G A56G A57C	0.04
G8C A28U U66C G70U	0.05
G8C A35U U67C U78C	0.04
G8C A45G U49C	0.36
G8C A47C U54C	0.18
G8C A56G U69C	0.08
G8C A64G U78A	0.06
G8C C14A A35U U41C U58A U74A	0.05
G8C C14U U72A A77G	0.05
G8C C34U A45U U49A	0.07
G8C C34U U49C U69A	0.04
G8C C38U U72G U78C	0.12

Variant	self-cleavage
G8C C39U U80C	0.08
G8C G24C U67C U69A	0.19
G8C U26A A47G U67C U69C	0.05
G8C U26C A75G	0.07
G8C U26C U51A U72C U78C	0.07
G8C U31C A35U	0.06
G8C U31C A45U	0.03
G8C U31C U54A A75G	0.07
G8C U31C U80C	0.08
G8C U41A A45G	0.15
G8C U41A C59A A65G	0.07
G8C U41A U58C G63A U72C	0.05
G8C U41C U60A	0.11
G8C U41G U72A	0.16
G8C U43C C59U U60C A65G	0.2
G8C U43G U49A U51C	0.22
G8C U49C A64G C68A U72A U78C	0.04
G8C U49C U58C U78C	0.06
G8C U49C U66C	0.06
G8C U51A U80C	0.07
G8U A13G A35G U41C U51A G63A U69C	0.07
G8U A13G A45C	0.22
G8U A13G C62U A65G	0.04

From the RNAGym collection of RNA variant scans (doi:10.1093/nar/gkz1192)
